First the molecules themselves.
B1: GPR68, Q15743 (parent)
chain: MGNITADNSSMSCTIDHTIHQTLAPVVYVTVLVVGFPANCLSLYFGYLQIKARNELGVYLCNLTVADLFYICSLPFWLQYVLQHDNWSHGDLSCQVCGILLYENIYISVGFLCCISVDRYLAVAHPFRFHQFRTLKAAVGVSVVIWAKELLTSIYFLMHEEVIEDENQHRVCFEHYPIQAWQRAINYYRFLVGFLFPICLLLASYQGILRAVRRSHGTQKSRKDQIQRLVLSTVVIFLACFLPYHVLLLVRSVWEASCDFAKGVFNAYHFSLLLTSFNCVADPVLYCFVSETTHRDLARLRGACLAFLTCSRTGRAREAYPLGAPEASGKSGAQGEEPELLTKLHPAFQTPNSPGSGGFPTGRLA

In series [1] the parent is B1. Description: cAMP reporter score (Enrich2 score, wild type = 0); higher = more signal; HEK293T, FACS bins.
Variants of B1 are the subject of series [2]. The series is described as follows: surface expression score (Enrich2 score, wild type = 0); higher = more signal; HEK293T, FACS bins.

Scores whose standard error is large were omitted. Two further conditions of the source, in which the scores hardly spread, are not listed. In variant names, del marks residues removed and ins residues inserted between the two positions. For part of these data: The data file names ogerin without a concentration.

Take L272Y: the cAMP reporter score in series [1] (pH 5.5) is -1.5; in series [1] (pH 6) it was -1.64; in series [1] (pH 6, modulator: ogerin), -1.91; in series [1] (pH 6.5, modulator: ogerin) it was -1.83. Also, the surface expression score in series [2] was -0.923.
L272V: the cAMP reporter score in series [1] (pH 5.5) is -0.31; in series [1] (pH 6, modulator: ogerin), 0.214; in series [1] (pH 6.5, modulator: ogerin), -0.821. Moreover, in series [2], the surface expression score is -0.691.
In the case of L272Q, the cAMP reporter score in series [1] (pH 5.5) is -0.314; in series [1] (pH 6), 0.882; in series [1] (pH 6, modulator: ogerin), -0.918. In series [2], the surface expression score was -0.337.
In the case of L272N, the cAMP reporter score is -1.25 in series [1] (pH 5.5); -1.18 in series [1] (pH 6); -1.97 in series [1] (pH 6, modulator: ogerin); -0.795 in series [1] (pH 6.5, modulator: ogerin). In series [2], the surface expression score is -1.61.
Consider L272T, for which the cAMP reporter score in series [1] (pH 5.5) is -1.25; in series [1] (pH 6), -1.37; in series [1] (pH 6, modulator: ogerin), -1.55; in series [1] (pH 6.5, modulator: ogerin), -1.19. Further, in series [2], the surface expression score was -1.44.
Take L272F: the cAMP reporter score in series [1] (pH 5.5) was determined as 0.12; in series [1] (pH 6) it was 0.371; in series [1] (pH 6, modulator: ogerin) it was 0.896; in series [1] (pH 6.5, modulator: ogerin), 2.28. Further, the surface expression score in series [2] was -1.01.
Turning to L272W, the cAMP reporter score is -0.548 in series [1] (pH 5.5); -0.689 in series [1] (pH 6); -1.51 in series [1] (pH 6, modulator: ogerin); -1.36 in series [1] (pH 6.5, modulator: ogerin). Besides, the surface expression score in series [2] was -0.766.
For L272M, the cAMP reporter score in series [1] (pH 5.5) was -0.051.
Take A267_Y268insGS: the cAMP reporter score in series [1] (pH 5.5) was -1.18; in series [1] (pH 6), -1.6; in series [1] (pH 6.5, modulator: ogerin), -0.617.
As to L274N, the cAMP reporter score in series [1] (pH 5.5) is -1.19; in series [1] (pH 6), -1.28; in series [1] (pH 6.5, modulator: ogerin), -1.8. For the same variant, the surface expression score in series [2] is -2.53.
On to L274D, for which the cAMP reporter score in series [1] (pH 5.5) is -1.65; in series [1] (pH 6) it was -1.21; in series [1] (pH 6, modulator: ogerin) it was -1.38; in series [1] (pH 6.5, modulator: ogerin), -1.53. Further, the surface expression score in series [2] was -1.8.
For L274R, the cAMP reporter score in series [1] (pH 5.5) was -0.481; in series [1] (pH 6, modulator: ogerin), -0.643.
For L274F, the cAMP reporter score in series [1] (pH 5.5) is -1.18; in series [1] (pH 6, modulator: ogerin), -0.718; in series [1] (pH 6.5, modulator: ogerin) it was -1.07. In addition, the surface expression score in series [2] was -0.246.
In the case of L274P, the cAMP reporter score in series [1] (pH 5.5) is -2.25; in series [1] (pH 6) it was -0.771; in series [1] (pH 6, modulator: ogerin), -1.62; in series [1] (pH 6.5, modulator: ogerin), -0.877. Further, the surface expression score in series [2] is -2.17.
Turning to L274K, the cAMP reporter score in series [1] (pH 5.5) was 0.016; in series [1] (pH 6) it was -0.706; in series [1] (pH 6.5, modulator: ogerin) it was -2.47.
For the variant L274V, the cAMP reporter score is -0.383 in series [1] (pH 5.5); -0.948 in series [1] (pH 6); -1.07 in series [1] (pH 6, modulator: ogerin); -1.33 in series [1] (pH 6.5, modulator: ogerin). In addition, the surface expression score in series [2] was -0.776.
L274H: the cAMP reporter score in series [1] (pH 5.5) was -1.56; in series [1] (pH 6), -0.697; in series [1] (pH 6, modulator: ogerin), -1.21; in series [1] (pH 6.5, modulator: ogerin) it was -1.42. For the same variant, the surface expression score in series [2] is -2.22.
In the case of L274S, the cAMP reporter score is -2.32 in series [1] (pH 5.5); -2.12 in series [1] (pH 6); -0.965 in series [1] (pH 6, modulator: ogerin); -1.95 in series [1] (pH 6.5, modulator: ogerin). For the same variant, the surface expression score in series [2] is -2.37.
On to L274C, for which the cAMP reporter score in series [1] (pH 5.5) was -0.421; in series [1] (pH 6), -1; in series [1] (pH 6, modulator: ogerin), -0.153; in series [1] (pH 6.5, modulator: ogerin), -0.859. Besides, the surface expression score in series [2] is -0.969.
For the variant L274A, the cAMP reporter score in series [1] (pH 5.5) is -0.534; in series [1] (pH 6) it was -0.94; in series [1] (pH 6, modulator: ogerin), 0.015; in series [1] (pH 6.5, modulator: ogerin), -0.451. The surface expression score in series [2] was found to be 0.313.
L274W: the cAMP reporter score was -1.49 in series [1] (pH 5.5) and -0.014 in series [1] (pH 6.5, modulator: ogerin).
Regarding L274M, the cAMP reporter score in series [1] (pH 5.5) is -0.073; in series [1] (pH 6), -0.78; in series [1] (pH 6, modulator: ogerin) it was -0.276; in series [1] (pH 6.5, modulator: ogerin) it was -0.384. Moreover, the surface expression score in series [2] was -0.217.
The corresponding values for L274Y are -2.48, -1.05, -2.9, -1.68 and -2.13.
L274I: the cAMP reporter score was -0.574 in series [1] (pH 5.5); -1.56 in series [1] (pH 6); -1.22 in series [1] (pH 6, modulator: ogerin); -1.32 in series [1] (pH 6.5, modulator: ogerin). In addition, the surface expression score in series [2] is -1.44.
Regarding L274Q, the cAMP reporter score in series [1] (pH 5.5) was -1.37; in series [1] (pH 6) it was -1; in series [1] (pH 6, modulator: ogerin), -1.75; in series [1] (pH 6.5, modulator: ogerin) it was -0.948. Moreover, in series [2], the surface expression score was -2.3.
The corresponding values for L274E are -2.16, 0.342, -1.33, -1.78 and -2.07.
On to L274_T275insGS, for which the cAMP reporter score in series [1] (pH 5.5) was -1.28; in series [1] (pH 6), -0.605; in series [1] (pH 6, modulator: ogerin), -1.54; in series [1] (pH 6.5, modulator: ogerin), -1.04. The surface expression score in series [2] is -3.12.
F270_S271insGS: the cAMP reporter score in series [1] (pH 5.5) was -1.06; in series [1] (pH 6), -0.917; in series [1] (pH 6, modulator: ogerin) it was -1.05; in series [1] (pH 6.5, modulator: ogerin) it was -0.808. Also, the surface expression score in series [2] was -2.8.
Regarding N278L, the cAMP reporter score was -0.987 in series [1] (pH 5.5); -0.274 in series [1] (pH 6); -0.696 in series [1] (pH 6, modulator: ogerin); -0.349 in series [1] (pH 6.5, modulator: ogerin). In series [2], the surface expression score was -1.63.
In the case of N278A, the cAMP reporter score in series [1] (pH 5.5) is -0.909; in series [1] (pH 6), -1.26; in series [1] (pH 6, modulator: ogerin), -0.737; in series [1] (pH 6.5, modulator: ogerin) it was -1.77. In series [2], the surface expression score came to 0.959.
N278K: the cAMP reporter score in series [1] (pH 5.5) was -1.56; in series [1] (pH 6) it was -0.852; in series [1] (pH 6, modulator: ogerin) it was -2.35; in series [1] (pH 6.5, modulator: ogerin), -1.79. The surface expression score in series [2] was 1.2.
The corresponding values for N278I are -1.12, -1.54, -1.79, -1.34 and -0.564.
For N278H the same measures were -1.48, -0.722, -1.38, -1.18 and 0.934.

The record behind these values is the GPR68 mutational scans of Howard et al. (2025).
